From PubChem BioAssay AID504332 (National Center for Advancing Translational Sciences (NCATS), 2011)
Screen size: about 350,000 compounds; about 31,000 (8.9%) were called active. Inconclusive means that the source gave no clear call. Such entries were picked first, then a sample of the others. Calls come from the whole dose curve; as a rule, active = well fitted inhibition curve with a large enough effect; inconclusive = small, poorly fitted or top-dose-only effect; inactive = no such curve, though single readings can be large or run the other way. Potencies of inconclusive entries are doubtful fits and often do not repeat.

What follows are compounds tested against Histone-lysine N-methyltransferase EHMT2 (Homo sapiens) (UniProt Q96KQ7) (assay: qHTS Assay for Inhibitors of Histone Lysine Methyltransferase G9a). Settings: G9a H3K9 monomethylation, AlphaScreen, 2 h; activity, negative = inhibition: at 59 µM (top of the series) unless noted.
Method in brief: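 G9a (20 nM) preincubated 15 min RT with compounds, then 500 nM biotinylated H3K9 peptide and 20 uM SAM added; 2 h RT reaction. Monomethyl-H3K9 product detected by AlphaScreen with anti-H3K9me1 antibody, streptavidin donor and anti-rabbit IgG acceptor beads.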
% is set by controls: 0 for no effect and ±100 for the full control effect; potency is the fitted concentration of half-maximal effect; tags give direction and shape of the fitted curve.
Note: nearly all actives have a fitted effect of over 75% in size.

Sequence of UniProt Q96KQ7 (Q96KQ7 whole entry, looked up): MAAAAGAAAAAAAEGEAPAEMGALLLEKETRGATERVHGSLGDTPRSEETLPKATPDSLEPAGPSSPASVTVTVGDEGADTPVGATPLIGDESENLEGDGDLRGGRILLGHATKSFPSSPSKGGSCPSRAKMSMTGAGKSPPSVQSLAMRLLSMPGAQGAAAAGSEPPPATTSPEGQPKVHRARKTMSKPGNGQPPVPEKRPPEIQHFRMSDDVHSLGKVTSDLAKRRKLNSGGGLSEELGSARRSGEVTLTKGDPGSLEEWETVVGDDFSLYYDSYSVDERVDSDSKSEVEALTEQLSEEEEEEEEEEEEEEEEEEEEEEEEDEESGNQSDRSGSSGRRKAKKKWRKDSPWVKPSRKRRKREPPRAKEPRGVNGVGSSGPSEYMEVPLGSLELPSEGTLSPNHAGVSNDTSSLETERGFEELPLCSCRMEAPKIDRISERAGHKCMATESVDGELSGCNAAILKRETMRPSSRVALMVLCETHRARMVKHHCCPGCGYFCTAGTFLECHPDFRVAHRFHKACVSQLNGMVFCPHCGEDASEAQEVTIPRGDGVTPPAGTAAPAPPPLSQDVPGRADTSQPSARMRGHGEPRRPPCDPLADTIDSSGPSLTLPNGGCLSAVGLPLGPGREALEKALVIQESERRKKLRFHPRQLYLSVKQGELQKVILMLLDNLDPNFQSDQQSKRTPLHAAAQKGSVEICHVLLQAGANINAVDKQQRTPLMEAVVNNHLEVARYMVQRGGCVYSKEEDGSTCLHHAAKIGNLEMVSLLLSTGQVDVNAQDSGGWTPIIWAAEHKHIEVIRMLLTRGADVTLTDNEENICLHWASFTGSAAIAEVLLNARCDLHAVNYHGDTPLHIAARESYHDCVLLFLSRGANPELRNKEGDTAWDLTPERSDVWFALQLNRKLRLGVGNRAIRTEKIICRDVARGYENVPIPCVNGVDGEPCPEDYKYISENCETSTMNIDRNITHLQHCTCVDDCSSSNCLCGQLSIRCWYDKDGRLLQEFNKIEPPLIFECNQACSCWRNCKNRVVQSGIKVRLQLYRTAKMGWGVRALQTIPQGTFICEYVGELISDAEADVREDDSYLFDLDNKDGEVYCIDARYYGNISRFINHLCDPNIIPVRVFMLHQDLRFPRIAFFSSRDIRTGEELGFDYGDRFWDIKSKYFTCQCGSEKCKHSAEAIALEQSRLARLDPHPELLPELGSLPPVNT

| SMILES | Potency | activity, negative = inhibition |
| --- | --- | --- |
| O=C(O)C1Cc2[nH]cnc2C(c2ccccc2O)N1 (centres undefined) | inactive |  |
| C#CCOCCOCCOCCNc1nc(N2CCN(C(=O)[C@H](CCC(=O)O)n3cc(C(N)CC(C)C)nn3)CC2)nc(N2CCN(C(=O)[C@H](Cc3cc4ccccc4[nH]3)n3cc(C(N)CC(C)C)nn3)CC2)n1 (some centres undefined) |  | inconclusive: -91.2% [inhibitor] |
| Cc1cc(C)n2ncc(/C(N)=N/OC(=O)Nc3ccccc3)c2n1 | inactive |  |
| O=C(c1ccccc1)C1Oc2ccccc2C2CC(c3cccs3)=NN12 (centres undefined) | inconclusive: 28.2 µM [inhibitor, partial curve] |  |
| O=C(NCC(=O)N(CCc1ccccc1)C(C(=O)NC1CCCC1)c1cccnc1)c1ccco1 (centres undefined) | inconclusive: 8.91 µM [inhibitor, partial curve] |  |
| N#Cc1cccc(Oc2ccc(S(=O)(=O)N3CCCC3)cn2)c1 | inactive |  |
| CCCn1c(-c2ccncc2)n[nH]c1=S | inconclusive: 79.4 µM [inhibitor, partial curve, poor fit] |  |
| CC(C)CCN1CCNC(=O)C1CC(=O)NCCCN1CCOCC1 (centres undefined) | inconclusive: 44.7 µM [inhibitor, partial curve] |  |
| COC(=O)c1ccccc1S(=O)(=O)N1Cc2cc([N+](=O)[O-])ccc2Oc2ccccc21 | inconclusive: 50.1 µM [inhibitor, partial curve, poor fit] |  |
| COc1ccc(-c2cc(C(F)(F)F)nc(SCCC(=O)NCc3ccco3)n2)cc1 | inconclusive: 31.6 µM [inhibitor, single point] |  |
| COc1ccccc1NC(=O)CSc1nnc(COc2ccccc2C)o1 | inconclusive: 79.4 µM [inhibitor, single point] |  |
| COCCSc1nnc(NC(=O)CS(=O)(=O)c2ccccc2)s1 | inconclusive: 89.1 µM [inhibitor, single point] |  |
| CCCCC1=CC2=CC(=O)C(C)(OC(=O)c3cnc4ccccc4n3)C(=O)C2=CO1 (centres undefined) | inconclusive: 14.1 µM [inhibitor, single point] |  |
| CC(C)NCC#CCOc1ccc(Cl)cc1 | active: 7.94 µM |  |
| COc1ccc(-c2nc(NC(=O)C3CCN(c4nc5ccccc5o4)CC3)sc2C)cc1 | inconclusive: 89.1 µM [inhibitor, single point] |  |
| CC1CCCC(NCC(O)COC(c2ccc(F)cc2)c2ccc(F)cc2)C1C (centres undefined) | active: 8.91 µM |  |
| Cc1cc(C)nc(NC(=O)c2ccc(Cl)cc2[N+](=O)[O-])c1 | inactive |  |
| CC(NC(=O)CN1CCN(c2ccccc2F)CC1)c1ccccc1 (centres undefined) | inactive |  |
| O=C(NN1C(=O)/C(=C/c2cccs2)SC1=S)c1ccncc1 | active: 44.7 µM |  |
